# Data published in PMC4336329 (PLoS ONE, 2015).
# In all, about 310,000 compounds went through this assay and about 14,000 (4.5%) showed an effect of 50% or more. The effect is printed as a negative number. Some of the results follow.
# Target: human ether-à-go-go-related gene (hERG) potassium channel (human, UniProt Q12809)
# Test: primary screen, population patch clamp on CHO cells stably expressing hERG
# 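Also: peak tail current of the secondary pulse compared with the same well before compound.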
# Sequence of human ether-à-go-go-related gene (hERG) potassium channel (Q12809 whole entry, looked up): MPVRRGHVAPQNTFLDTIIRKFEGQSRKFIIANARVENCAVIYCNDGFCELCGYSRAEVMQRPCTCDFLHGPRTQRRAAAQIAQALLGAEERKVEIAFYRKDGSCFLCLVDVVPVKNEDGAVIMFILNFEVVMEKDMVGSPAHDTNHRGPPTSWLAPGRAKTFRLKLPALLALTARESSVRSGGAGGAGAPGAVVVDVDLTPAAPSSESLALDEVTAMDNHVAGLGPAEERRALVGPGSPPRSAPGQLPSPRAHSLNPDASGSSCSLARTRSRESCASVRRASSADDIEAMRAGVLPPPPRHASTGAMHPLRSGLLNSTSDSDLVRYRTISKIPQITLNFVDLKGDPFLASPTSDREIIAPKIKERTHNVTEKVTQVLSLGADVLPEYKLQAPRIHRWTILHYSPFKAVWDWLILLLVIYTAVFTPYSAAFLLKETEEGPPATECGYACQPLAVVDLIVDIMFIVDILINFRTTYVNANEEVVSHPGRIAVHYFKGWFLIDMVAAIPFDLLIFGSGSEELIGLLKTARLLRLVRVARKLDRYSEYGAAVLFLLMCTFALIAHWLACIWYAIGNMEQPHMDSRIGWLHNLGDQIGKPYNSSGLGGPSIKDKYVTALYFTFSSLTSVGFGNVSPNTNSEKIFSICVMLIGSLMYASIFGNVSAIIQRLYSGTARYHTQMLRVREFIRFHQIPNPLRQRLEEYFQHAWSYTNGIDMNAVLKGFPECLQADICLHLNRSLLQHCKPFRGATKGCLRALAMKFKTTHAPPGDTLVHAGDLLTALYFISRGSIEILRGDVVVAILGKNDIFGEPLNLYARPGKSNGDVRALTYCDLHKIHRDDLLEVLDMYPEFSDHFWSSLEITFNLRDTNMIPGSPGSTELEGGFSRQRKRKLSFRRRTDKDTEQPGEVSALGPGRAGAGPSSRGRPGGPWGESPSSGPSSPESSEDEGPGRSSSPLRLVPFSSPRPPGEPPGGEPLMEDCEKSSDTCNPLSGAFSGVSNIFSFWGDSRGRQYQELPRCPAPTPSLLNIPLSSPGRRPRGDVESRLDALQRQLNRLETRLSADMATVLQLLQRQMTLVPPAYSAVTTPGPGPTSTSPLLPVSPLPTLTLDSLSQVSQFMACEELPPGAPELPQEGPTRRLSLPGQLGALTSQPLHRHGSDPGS
row,Compound,"hERG current change (%, negative = inhibition) at 10uM"
1,Cc1nc2cc(-c3sccc3-n3cccc3)nn2c(C)c1C,-7.45%
2,CCC(=O)c1cn(CC(=O)Nc2cccc(OC)c2)c2ccccc12,23.3%
3,Cn1c(SCC(=O)N2CCOCC2)nnc1-c1ccncc1,16.3%
4,CSCC[C@H](NC(=O)Cc1c(C)c2c(cc(C)c3c(C)coc32)oc1=O)C(=O)O,10.3%
5,Cc1ccc(NC(=O)Cn2nc(C(=O)Nc3ccc(C)cc3)ccc2=O)cc1,10.8%
6,CN(C)C(=O)c1snnc1-c1ccccc1,5.45%
7,Cc1ccc(Nc2nc(-c3cccs3)cs2)nc1,8.89%
8,CCOc1cc(CNc2ccc3[nH]c(=O)[nH]c3c2)ccc1OCC(=O)NC(C)(C)C,12.4%
9,CC(C)(C)C(=O)OCC1OC(n2cnc(C(N)=O)n2)C(O)C1O (stereo not drawn),19.8%
10,CCOc1ccc2[nH]c(=O)c(CN(CCO)C3(c4nnnn4C4CCCCC4)CCCCC3)cc2c1,-7.71%
11,C#CCOCCOCCOCCNc1nc(N2CCN(C(=O)Cn3cc(CCC[NH+]=C(N)N)nn3)CC2)nc(N2CCN(C(=O)[C@H]([C@@H](C)O)n3cc(CCCC[NH3+])nn3)CC2)n1.[Cl-],4.41%
12,COc1ccc(SC[C@H](CC(C)C)N2CCN(CCc3ccccc3)CCC2=O)cc1,-71.3%
13,C=CCn1nc2ccccc2c1OCCO,19%
14,CCNc1nc(NCC)nc(OCCOC(=O)Nc2ccccc2)n1,-0.811%
15,Cc1cc2c(c(N3CCOCC3)n1)C(=O)OC2,11.5%
16,Cc1cc(Cl)c2oc(C(=O)N(C)CCCN3CCOCC3)c(C)c2c1,-42.9%
17,O=C(NCc1ccc2c(c1)OCO2)c1ccccc1,-4.18%
18,COc1cc(NC(=O)CCNC(=O)Cn2ccc3ccccc3c2=O)cc(OC)c1OC,18.1%
19,COc1ccccc1C(=O)C1CCCN(C(=O)CCn2cnnn2)C1 (stereo not drawn),0.341%
20,FC(F)(F)c1cccc(Cn2cnc(NC(=S)NCCc3ccccc3)n2)c1,7.89%
21,CCC(=O)N1C(C(=O)N2CCCC2)CSC1c1ccc(OC)cc1 (stereo not drawn),-7.14%
22,Cc1nc(NC(=O)c2ccc(Cl)cc2)sc1-c1csc(Nc2cccc(F)c2)n1,14.7%
23,CCN(CC)CCn1c(C)nc2c(sc3nc4c(cc32)COC(C)(C)C4)c1=O,-22.3%
24,Cc1ccnc2c(N3C(=O)C4C5C=CC(C5)C4C3=O)cccc12 (stereo not drawn),-2.15%
